The IC50 comes from the fitted curve, where viability falls to half of the control; fits outside the tested doses are given as limits. The AUC spans the tested range (256-fold, ending at the top dose) of the same fit: 1 means no effect, lower means more sensitive.
Compound: FC(F)c1nc2ccccc2n1-c1nc(N2CCOCC2)nc(N2CCOCC2)n1 [ZSTK474]
Assay: Viability of human cancer cell lines after 72 h of drug (GDSC screen)
Method: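 Human cancer cell lines in 384-well plates, medium with 10% serum, drug for 72 h over a 256-fold dose range (nine 2-fold or five 4-fold steps up to the top dose). Adherent lines were fixed and stained with the nucleic acid dye Syto60, suspension lines read with resazurin; signal relative to control wells, capped at 0 and 100%. One two-parameter sigmoid per drug and line, fitted in a mixed model over all curves with the slope shared within a line.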

Cell Line | AUC | IC50
NUGC-3 (stomach, adherent, top dose 5.12 µM) | 0.875 | > 5.12 µM
NUGC-4 (stomach, adherent, top dose 5.12 µM) | 0.96 | > 5.12 µM
NY (osteosarcoma, adherent, top dose 5.12 µM) | 0.965 | > 5.12 µM
OACM5-1 (oesophagus, semi-adherent, top dose 5.12 µM) | 0.411 | 0.176 µM
OACp4C (oesophagus, adherent, top dose 5.12 µM) | 0.414 | 0.177 µM
OAW-28 (ovary, adherent, top dose 5.12 µM) | 0.759 | 2.25 µM
OAW-42 (ovary, adherent, top dose 5.12 µM) | 0.58 | 0.54 µM
OC-314 (ovary, adherent, top dose 5.12 µM) | 0.749 | 1.46 µM
OCI-AML2 (acute myeloid leukaemia, suspension, top dose 5.12 µM) | 0.896 | 3.47 µM
OCI-AML3 (acute myeloid leukaemia, suspension, top dose 5.12 µM) | 0.453 | 0.242 µM
OCI-AML5 (acute myeloid leukaemia, suspension, top dose 5.12 µM) | 0.359 | 0.136 µM
OCI-LY-19 (B-cell lymphoma, suspension, top dose 5.12 µM) | 0.253 | 0.0672 µM
OCI-M1 (acute myeloid leukaemia, suspension, top dose 5.12 µM) | 0.374 | 0.158 µM
OCUB-M (breast, adherent, top dose 5.12 µM) | 0.594 | 0.558 µM
OCUM-1 (stomach, adherent, top dose 5.12 µM) | 0.968 | > 5.12 µM
OE19 (oesophagus, adherent, top dose 5.12 µM) | 0.984 | > 5.12 µM
OE21 (oesophagus, adherent, top dose 5.12 µM) | 0.913 | > 5.12 µM

Cell Line | AUC | IC50
OE33 (oesophagus, adherent, top dose 5.12 µM) | 0.766 | 2.24 µM
OMC-1 (cervix, adherent, top dose 5.12 µM) | 0.81 | 2.85 µM
ONS-76 (medulloblastoma, adherent, top dose 5.12 µM) | 0.856 | 4.66 µM
OPM-2 (myeloma, suspension, top dose 5.12 µM) | 0.588 | 0.531 µM
OS-RC-2 (kidney, adherent, top dose 5.12 µM) | 0.601 | 0.684 µM
OSC-19 (head and neck, adherent, top dose 5.12 µM) | 0.859 | 4.52 µM
OSC-20 (head and neck, adherent, top dose 5.12 µM) | 0.784 | 2.62 µM
OV-7 (ovary, adherent, top dose 5.12 µM) | 0.635 | 0.92 µM
OV-17R (ovary, adherent, top dose 5.12 µM) | 0.642 | 0.927 µM
OV-56 (ovary, adherent, top dose 5.12 µM) | 0.776 | 1.95 µM
OV-90 (ovary, adherent, top dose 5.12 µM) | 0.837 | 4.91 µM
OVCA420 (ovary, adherent, top dose 5.12 µM) | 0.912 | > 5.12 µM
OVCA433 (ovary, adherent, top dose 5.12 µM) | 0.834 | 3.89 µM
OVCAR-3 (ovary, adherent, top dose 5.12 µM) | 0.933 | > 5.12 µM
OVCAR-4 (ovary, adherent, top dose 5.12 µM) | 0.761 | 2.72 µM
OVCAR-5 (ovary, adherent, top dose 5.12 µM) | 0.808 | 3.33 µM
OVCAR-8 (ovary, adherent, top dose 5.12 µM) | 0.812 | 2.38 µM

From the supplement of paper PMC4967469
